Experimental data published in article PMC4336329 (PLoS ONE, 2015).
Screen size: about 310,000 compounds; about 14,000 (4.5%) showed an effect of 50% or more. The effect is printed as a negative number. The list shows a part of the results.

The compounds below were run against human ether-à-go-go-related gene (hERG) potassium channel (human, UniProt Q12809) (assay: primary screen, population patch clamp on CHO cells stably expressing hERG).
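Also: peak tail current of the secondary pulse compared with the same well before compound.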

human ether-à-go-go-related gene (hERG) potassium channel, sequence (Q12809 whole entry, looked up): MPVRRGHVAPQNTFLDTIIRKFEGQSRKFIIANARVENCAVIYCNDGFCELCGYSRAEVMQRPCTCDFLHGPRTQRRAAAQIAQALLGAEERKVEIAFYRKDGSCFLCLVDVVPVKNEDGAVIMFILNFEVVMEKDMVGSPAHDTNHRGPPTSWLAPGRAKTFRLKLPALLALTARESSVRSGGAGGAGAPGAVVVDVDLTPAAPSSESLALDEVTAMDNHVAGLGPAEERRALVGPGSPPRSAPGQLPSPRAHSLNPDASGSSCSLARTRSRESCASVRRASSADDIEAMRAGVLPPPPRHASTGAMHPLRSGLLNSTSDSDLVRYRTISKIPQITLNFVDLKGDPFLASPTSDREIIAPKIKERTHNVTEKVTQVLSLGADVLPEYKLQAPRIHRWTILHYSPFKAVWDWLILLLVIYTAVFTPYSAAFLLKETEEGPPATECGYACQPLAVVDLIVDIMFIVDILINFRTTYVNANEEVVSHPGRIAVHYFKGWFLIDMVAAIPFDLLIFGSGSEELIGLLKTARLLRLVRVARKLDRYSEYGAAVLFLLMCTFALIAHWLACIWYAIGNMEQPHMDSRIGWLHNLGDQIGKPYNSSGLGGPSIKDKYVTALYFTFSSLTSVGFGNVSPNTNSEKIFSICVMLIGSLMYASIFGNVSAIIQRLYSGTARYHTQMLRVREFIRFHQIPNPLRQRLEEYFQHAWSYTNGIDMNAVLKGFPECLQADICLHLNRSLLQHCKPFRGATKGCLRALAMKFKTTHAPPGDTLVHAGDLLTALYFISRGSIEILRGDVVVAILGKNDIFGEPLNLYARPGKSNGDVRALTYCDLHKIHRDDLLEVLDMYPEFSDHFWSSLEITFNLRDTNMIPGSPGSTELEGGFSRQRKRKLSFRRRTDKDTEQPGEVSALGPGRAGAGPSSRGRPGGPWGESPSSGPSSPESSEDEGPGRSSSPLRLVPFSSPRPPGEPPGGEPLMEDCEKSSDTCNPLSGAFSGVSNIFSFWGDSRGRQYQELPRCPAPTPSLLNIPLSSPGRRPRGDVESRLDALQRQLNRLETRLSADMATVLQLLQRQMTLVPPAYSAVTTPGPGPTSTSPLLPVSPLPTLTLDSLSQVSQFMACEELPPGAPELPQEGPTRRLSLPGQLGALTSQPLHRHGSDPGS

| Structure (SMILES) | hERG current change (%, negative = inhibition) at 10uM [%] |
| --- | --- |
| Nc1nc(=S)c2ncn([C@@H]3O[C@H](CO)[C@@H](O)[C@H]3O)c2[nH]1 | 17.2 |
| CCC(CC)C(=O)NCCc1cc2cc(C)c(C)cc2[nH]c1=O | 21.1 |
| Cc1ccc(N(C(=O)c2csnn2)C(C(=O)NC(C)(C)C)c2cccnc2)cc1C (centres unmarked) | 1.24 |
| Cc1ccc(C(=O)C(C)OC(=O)CN2C(=O)NC3(CCCC3)C2=O)cc1 (centres unmarked) | 8.95 |
| COCCn1c(NC(=S)NC(=O)C23CC4CC(CC(C4)C2)C3)cc(=O)[nH]c1=O | -8.59 |
| COc1ccc(CN2CCNC(=O)C2CC(=O)N(C)Cc2ccon2)cc1OC (centres unmarked) | -0.926 |
| C=CCN(CC=C)C(=O)c1ccc2nc(Cc3ccc(OC)c(OC)c3)oc2c1 | 6.19 |
| COc1cc2c(cc1OC)CN(C(=O)c1cccc(S(=O)(=O)N(C)C)c1)CC2 | 6.05 |
| Cc1ccc(C)c(C(C)NC(=S)NC2CCCCC2)c1 (centres unmarked) | 0.228 |
| COc1ccc(-c2c(C#Cc3ccsc3)c3cc(-c4ccc5[nH]ccc5c4)ccc3n2C)cc1 | 24.1 |
| Cc1ccc(NC(=O)CC2SC(=O)NC2=O)cc1 (centres unmarked) | 13.3 |
| CCCOc1ccc(-c2nn(-c3ccccc3)cc2/C=C2\SC(N)=NC2=O)cc1C | 3.82 |
| Cc1ccnc(NC(=O)Nc2ccc3c(c2)OCO3)c1 | 17.2 |
| COc1ccc(NC(=O)CN(c2ccc([N+](=O)[O-])cc2)S(=O)(=O)c2ccccc2)cc1 | -10.3 |
| COc1ccc(N2CCN(C(=O)COC(=O)CCS(=O)(=O)c3ccc(C)cc3)CC2)cc1 | -12.2 |
| COC(=O)Cc1ccc(O)c(N)c1 | 9.82 |
| COc1cc(Br)cc(/C=N/c2ncn[nH]2)c1O | 8.79 |
| Cc1cccc(OCC(=O)Nc2nnc(S(=O)(=O)N3CCCCC3)s2)c1 | -8.5 |
| COc1cccc(CNc2ccccn2)c1O | 14.9 |

| Structure (SMILES) | hERG current change (%, negative = inhibition) at 10uM [%] |
| --- | --- |
| CCOc1ccc(NC(=O)c2ccc(S(=O)(=O)N3CCOCC3)cc2)cc1 | 10.1 |
| COc1cccc(-c2nc(CS(=O)(=O)CC(=O)NCC(C)c3ccccc3)c(C)o2)c1 (centres unmarked) | -40.3 |
| COc1ccccc1C(=O)n1nc(-c2ccccc2)nc1N | 0.335 |
| CCCCN1C(=O)C(O)(CC(=O)c2ccccc2OC)c2ccccc21 (centres unmarked) | -0.832 |
| Cc1cc(NC2C3CC4CC(C3)CC2C4)n2nnnc2n1 (centres unmarked) | 5.05 |
| CS(=O)(=O)c1nc(S(=O)(=O)c2ccc(Cl)cc2)c(N2CCC3(CC2)OCCO3)s1 | -59.3 |
| CCOc1ccc(CNC(=O)CCc2cn(Cc3ccccc3)c3ccccc23)cc1 | -1.6 |
| CC1CCN(C(=O)c2cc(Cl)ccc2NC(=O)c2ccco2)CC1 | 12 |
| CC(C)CCNC(=O)C1CC(=O)N(C2CCCC2)C1 (centres unmarked) | -8.78 |
| CSc1n[nH]c(=O)n1-c1cccc(Cl)c1 | -0.0163 |
| NC(=O)CC(NC(=O)Cc1cccc2ccccc12)c1ccc(NCc2ccc(F)c(F)c2)c([N+](=O)[O-])c1 (centres unmarked) | -1.33 |
| CCCCN(C)C1=Nc2cccc3cccc1c23 | -72 |
| N#C/C(=C\c1ccc(Cl)cc1)c1n[nH]c(Cn2cncn2)n1 | -0.154 |
| O=C(CSc1ncccc1C(=O)O)NC1CCCCCCC1 | 2.52 |
| CCN1CCN(c2ccc(S(=O)(=O)N3CCCCC3)cc2NC(=O)c2cccc(NC(C)=O)c2)CC1 | -71.3 |
| COc1cc(C(=O)NCC(c2cccs2)N(C)C)cc(Cl)c1OC(C)C (centres unmarked) | -11 |
| O=C(O)c1ccc2c(c1)C(=O)N(c1ccc(OCc3ccccc3)cc1)C2=O | 23.3 |
| CS(=O)(=O)c1ccc2nc(NC(=O)Nc3ccccc3F)sc2c1 | 25 |
| CC(C)OC(=O)c1nn2c(C(F)(F)F)cc(-c3ccc(Br)o3)nc2c1Br | 4.77 |

| Structure (SMILES) | hERG current change (%, negative = inhibition) at 10uM [%] |
| --- | --- |
| Cc1ccc2c(c1)N(C(=O)CCC(=O)NC1CCC(C)CC1)CCO2 (centres unmarked) | -16 |
| O=C(NNS(=O)(=O)c1ccccc1)C1CCN(S(=O)(=O)c2ccc(Cl)cc2)CC1 | -45.9 |
| COc1cnc(-c2ccccn2)[nH]c1=O | 23.7 |
| CC1CCCCN1CC(=O)Nc1ccc(N2CCCCCC2)cc1.O=C(O)C(=O)O (centres unmarked) | -13.2 |
| NC(=O)CSc1nc2ccc([N+](=O)[O-])cc2[nH]1 | 22.5 |
| O=C(c1ccco1)N1CCN=C1SCc1ccccc1F | 1.09 |
| CCC(=O)N1c2ccc(S(=O)(=O)N3CCN(c4cc(C)ccc4C)CC3)cc2CC1C (centres unmarked) | 13.3 |
| COc1ccc(OC)c(CCNC(=O)C2CCN(c3nnc(-n4cccc4)s3)CC2)c1 | -34.1 |
| O=[N+]([O-])c1ccc(N2CCN(S(=O)(=O)c3ccccc3)CC2)cc1NCc1ccco1 | 17.4 |
| COc1ccc(CN2CCc3ccccc3C2)c(OC)c1OC | -13.4 |
| CCOc1ccccc1Nc1nc(-c2sc(NC(=O)c3cccc(Cl)c3)nc2C)cs1 | -7.47 |
| CC1(C)CC(=O)C2=C(C1)Nc1ccccc1NC2c1ccc(F)c(F)c1 (centres unmarked) | -3.14 |
| Cc1c(NS(C)(=O)=O)c(=O)n(-c2ccccc2)n1C | 2.77 |
| COC(=O)N/N=C/c1cc(N=Nc2ccccc2)ccc1O | 0.767 |
| CCOc1ccc(S(=O)(=O)NCCN2CCOCC2)c2ccccc12 | -11.2 |
| COc1ccc(C(=O)N2CCN(c3ccc([N+](=O)[O-])c(NCCc4ccc(OC)c(OC)c4)c3)CC2)cc1 | 4.2 |
| CSc1ncc(C(=O)Nc2ccc(Br)cn2)c(C)n1 | -7.65 |
| CC1=C(C(=O)OCc2ccccc2)C(c2cccc(Br)c2)NC(=O)N1 (centres unmarked) | 17.3 |
